Sequences and labels used below:
B1: CPEB3 Ribozyme (parent)
chain: UAACAGGGGGCCACAGCAGAAGCGUUCACGUCGCAGCCCCUGUCAGAUUCUGGUGAAUCUGCGAAUUCUGCUGUAUAUCUC

Read counts are not given, so values of variants with three or more changes are uncertain.

In the data set the parent is B1. The data set can be described thus: self-cleavage, relative activity (ratio to wild type); higher = more cleavage; in vitro, sequencing. An outline of the steps: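 CPEB3 self-cleaving ribozyme mutant libraries were made by rounds of error-prone PCR, barcoded, and transcribed in vitro with T7 RNA polymerase for 5 hours at 37°C. Cleavage occurred during transcription and a 15 min DNase I step before EDTA stop. RNAs were reverse transcribed with template switching and Illumina-sequenced, with DNA sequencing mapping barcodes to variants. Relative activity is the variant's cleaved/total read fraction divided by wild type's (minimum 5 reads), averaged across three batches.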
Consider A2G G6U A15G U41A, for which the self-cleavage came to 0.59.
Then A2G U26C G33U, with 0.26.
As for A2G U69C A75G U80C, the figure is 0.18.
A2G U25C U48A: the self-cleavage came to 0.34.
As for A2G C39G A47G, the figure is 0.12; as for A2G A45U U54C A56U, 0.09; as for A2G C12U U51C U60A, 0.31.
As to A2G U67A U74A, the self-cleavage was 0.31.
Then A2G A28U U54C U69A, with 0.15; and A2G G10A C29U U54C U67C, with 0.05; and A2G U25C C32U U72C U78C, with 0.05.
Then A2G U41A A75G, with 0.29.
As for A2G A21G U54C, the self-cleavage turned out to be 0.46.
As for A2U A18G G52A, the figure is 0.59; as for A2G C12U U43C, 0.86.
As for A2G A35G A47G U60A A64U, the figure is 0.55; as for A2G U58C U60A, 0.
Then A2G U31C C39U U72A, with 0.13.
A2U A18G U31A: the self-cleavage was 0.39.
Then A2G U51A C62U, with 0.24; and A2G G9U A18G, with 0.08; and A2G U54C U80C, with 0.97.
In the case of A2G G9A C14U G16A U41C U80C, the self-cleavage came to 0.08.
As for A2G U26A G36U U76C A77G, the figure is 0.13.
Then A2G G7A A57U A77U, with 0.37; and A2U A5U U31A A35U A65C U78C, with 0.07; and A2U A18G A35G A45U U58C U78C, with 0.14.
Then A2G U31C C59A U66C, with 0.24; and A2G U41C A47G, with 0.45; and A2G A45U U48C U72C, with 0.28.
A2G U26A C68A G70U U74C U76A: the self-cleavage came out at 0.22.
Then A2G A56U A64G C79U, with 0.1; and A2G A21G U25C A64G, with 0.35; and A2G C14U U49C U51A, with 0.28.
On to A2G C32U U41A A64U U72C, for which the self-cleavage was found to be 0.1.
As for A2G U25A A28U U69C U74A, the figure is 0.13; as for A2G G7A A18G A65G U67A, 0.21; as for A2G U60C A65G, 0.15.
As to A2U A20G G52A U67C U72G, the self-cleavage is 0.57.
Consider A2G C11A U41C A57G, for which the self-cleavage turned out to be 0.37.
As for A2G G16U C23U U60C, the figure is 0.19; as for A2G C37A U51A A57G U69A, 0.12; as for A2G C11G A20G, 0.35.
For A2G U41C U49C A77G, the self-cleavage worked out at 0.17.
In the case of A2G A47G A56G, the self-cleavage came out at 0.36.
Turning to A2G G6A U41G U69C G73A, the self-cleavage came out at 0.42.
As for A2G U66C U72C U74C, the figure is 0.16; as for A2G U26C U43C U78C C81U, 0.28; as for A2G A21G U25C U26C U72C U78A, 0.14.
As for A2U A13G U60C, the figure is 0.33; as for A2U A13U A18C U41C A77G, 0.24; as for A2G C23A A28U U43C A56G U76C, 0.07.
As for A2G G52A A56U U60C, the figure is 0.09.
On to A2G A21U C40A U66C, for which the self-cleavage came out at 0.08.
Consider A2U A15G A47G U54C U58C U74C C79A, for which the self-cleavage amounted to 1.33.
Then A2G U25A U31C U49C U58A U74G, with 0.05; and A2U A15G A28G U43C, with 0.16; and A2G A21G A45U U66C, with 0.13.
As for A2G G8U A15G A18G A64G A75G, the figure is 0.06; as for A2G U49C U78C, 0.72.
Then A2G G6A U51C U67C G73A, with 0.09; and A2U A21G U43C U49C U72C, with 0.08; and A2G U48C U72C U76A, with 0.45.
Take A2U A5G A15U U43C A64U: the self-cleavage was 0.11.
Then A2G C12U A21U U41A U43C A57C, with 0.18.
As for A2U A20U U26C U31A U69A U72A C79G, the figure is 0.06; as for A2G A56G U80C, 0.78.
As for A2G C14U U48C A65G, the figure is 0.16.
A2G G6A A13U U25C U26C U41C U60A: the self-cleavage is 0.04.
As for A2G U26C A45G U69G, the figure is 0.26; as for A2G G8A A20G A35U G52U A56U U76C, 0.12; as for A2G U51C U72G U78C, 0.52.
As for A2G G22U A35U U49C U51A G53U U60C, the figure is 0.1.
With A2G C11G A20G U41G U43C, the self-cleavage amounted to 0.05.
As for A2U A5G U43G U49A A57G U67A, the figure is 0.43.
Then A2U A18G A28U U41C A47G U67C U72C, with 0.16; and A2G C4U U25C U26C A28U A35U, with 0.13.
On to A2G C4U A20U, for which the self-cleavage stood at 0.31.
In the case of A2G G8A U58C G70A U76A, the self-cleavage was 0.03.
As for A2G C11U A28G C79G, the figure is 0.25; as for A2G A35U C40U U58C U69A, 0.05; as for A2G U31G C50A U72C, 0.58.
Then A2U A20C A45U A57C, with 0.2.
Then A2G A28U U69A A77G U80C, with 0.18; and A2G G30A A75C, with 0.36.
As for A2G C39A U49C U54G A64G, the self-cleavage was found to be 0.15.
Take A2G G19U A47G: the self-cleavage is 0.59.
As for A2U A13G U25C, the figure is 0.4.
Then A2G U43A A56U A57G, with 0.43; and A2U A13G A28U U69G, with 0.29.
Take A2G C40A U48A: the self-cleavage turned out to be 0.31.
As for A2G G6A U31A G63A G73U, the figure is 0.07.
Then A2G G9U C14U A28G U31C U54C U76C, with 0.05.
Then A2U A13G U54C, with 0.83; and A2G A28G A75U, with 0.71.
Regarding A2G A35G U60C, the self-cleavage was found to be 0.32.
As for A2U A18C U26A A35U A45U U72A, the figure is 0.07; as for A2U A21G A35G U43C A45U A56G U58A, 0.17.
As for A2U A18U C23U U54C A57G U69A, the figure is 0.21.
As for A2U A13G A35U A56G U72C, the figure is 0.17; as for A2G U41A U69C, 0.05.
Turning to A2G U25C U49A, the self-cleavage was found to be 0.1.
On to A2U A20G U67C, for which the self-cleavage was 0.86.
As for A2G A21G G63U U78C, the figure is 0.29; as for A2U A13U A18G A45G U72C, 0.34.
Then A2G G9C U48C A57G U67C U78C, with 0.04.
As to A2G G8A A13G U26A, the self-cleavage is 0.44.
Then A2U A5G U48C U76A, with 0.53; and A2G C27U A35U U48C U69A, with 0.15; and A2G C29U A35U C37A U48C, with 0.03.
Then A2G U51C U72A, with 0.66; and A2G G9A U41C U72A, with 0.54.
Consider A2U A28G U54C U67C, for which the self-cleavage was 0.14.
In the case of A2G A28U U60C A65G U72G A75G, the self-cleavage is 0.07.
As to A2U A5G U72C, the self-cleavage was 0.84.
Then A2G U25G C39G A56G, with 0.07; and A2G C40G G73A, with 0.48.
Then A2U A3U C12A U25C U41A A75U, with 0.11; and A2G A47G U49C A65G, with 0.5; and A2G C17U U48C U76C, with 0.11.
As for A2G U41A A47G C59A, the figure is 0.14.
On to A2G A35C U43C A47U A56G, for which the self-cleavage turned out to be 0.07.
Then A2G G6A C40U C44G U48C U80C, with 0.08; and A2G G10A A18U, with 0.38; and A2U A3G G10A A35G U74C, with 1.22.
As for A2G C4U G10U U31G U51A A56U, the figure is 0.11; as for A2G U41C U54A A56G U60G A64G, 0.14; as for A2G G6A C29U U51A, 0.07.
As for A2G U25C U26C C29U U80G, the figure is 0.21; as for A2G U43C A56C C62G, 0.26.
In the case of A2G A28G A64G, the self-cleavage was determined as 0.39.
Then A2U A20C U26A U41A A56U A57G, with 0.19; and A2G U26C A45G U54C U74A, with 0.56; and A2G A21G U25A U74C, with 0.54.
Then A2G G36C U74A, with 0.4; and A2G C4U A18G U26C U41C, with 0.14.
On to A2G G9A C14U U26A U31A G63A U72C, for which the self-cleavage came to 0.05.
Then A2G A47G U48A U60A U80A, with 0.33; and A2G G8A A18G A21G U67C, with 0.08.
As for A2G C4U A5G, the figure is 0.8; as for A2G U31C A65G, 0.36.
As for A2G U31C A45G U72A C79G, the figure is 0.23.
Regarding A2U A13U U48C A64G, the self-cleavage worked out at 0.32.
Then A2G U25A U26C C37A U60C, with 0.12; and A2G U41A U43A G70A, with 0.44; and A2G A56C U58C U67C, with 0.1.
Consider A2U A13U A15U A45G A65G, for which the self-cleavage worked out at 0.
Regarding A2G A35U U49A A56U U60C A75U U76C, the self-cleavage came out at 0.09.
Then A2G U31C U41G A45G U51A C59U, with 0.09; and A2G G10A A20G U26C U69A U78C, with 0.06.
As for A2U A13U U69C A77G, the figure is 0.41.
As for A2G A28U U48A, the figure is 0.22.
For A2G G6A A15G U25C A57U A77G, the self-cleavage is 0.05.
Then A2G G10C C17G U25C U31A A45G, with 0.08; and A2U A5U A28G U43C U54A A64G, with 0.04; and A2G A21G A35U C37G U67C, with 0.55.
Consider A2U A15U C62U A64G, for which the self-cleavage was 0.12.
Then A2G G8A C12U A21G A65G, with 0.05; and A2G A56G U72A, with 0.19; and A2G G7A U41C A47G A56G, with 0.43.
As for A2G A64U U67C, the figure is 0.16.
Consider A2G C4U A13U U49A U78C, for which the self-cleavage was determined as 0.72.
Then A2G G24A U43A A57U U80C, with 0.34.
Then A2G G55A A56U, with 0.24; and A2G C23U A35G A45C A57G U66C, with 0.05; and A2G U41G U49C U54C, with 0.29.
Turning to A2G A56G U69C A77U, the self-cleavage amounted to 0.21.
